Legend:
[1] = system: LDLR-mediated ligand uptake in HepG2 cells; test: Dil-LDL uptake assay in HepG2 cells (FACScan); assay type: cell-based, human; conditions: HepG2, BBR 10 μg/ml overnight (18 h)
[2] = system: LDLR promoter; test: LDLR promoter dual luciferase reporter assay (pLDLR234Luc) in HepG2 cells; assay type: cell-based, human; conditions: HepG2, BBR or CND 15 μg/ml, 8 h
Protocol: FIG. 1E: Analysis of LDLR promoter activity: HepG2 cells were cotransfected with pLDLR234Luc and a normalizing vector pRL-SV40. […] Firefly luciferase and renilla luciferase activities were measured. The data represent normalized LDLR promoter activity.
Transient transfection and dual luciferase reporter assays. HepG2 cells were transfected with plasmid DNA (100 ng/well) by using FuGENE 6 transfection reagent. The DNA ratio of pLDLR234Luc (Li, C et al. J. Biol. Chem. 1999, 274: 6747-6753) to renilla luciferase reporter pRL-SV40 was 90:10. Twenty h after transfection, medium was changed to 0.5% FBS and drugs were added for 8 h prior to cell lysis. The luciferase activity in cell lysate was measured using Dual Luciferase Assay System obtained from Promega. Triplicate wells were assayed for each transfection condition.

[3] = Liver histology (H&E and Oil Red O staining) in HFHC-fed hamsters; assay type: in vivo, Golden Syrian hamsters; conditions: BBR 1.8 mg/d
[4] = Biochemical analyses of hamster blood samples

COc1ccc2cc3[n+](cc2c1OC)CCc1cc2c(cc1-3)OCO2 [BBR, berberine]
LDLR-mediated ligand (Dil-LDL) uptake increase compared to untreated cells [1]: 2.5 fold | LDLR promoter activity [2]: not affected at all | hepatocyte morphology and liver steatosis (histology) [3]: Restoration of hepatocyte morphology and reduction of liver steatosis | elevation of WBC caused by high fat diet ([4]; HFHC hamsters, both doses of goldenseal and BBR, p<0.05): totally suppressed to the base line level | ALK ([4]; HFHC, BBR 1.8 mg/day (n = 5)): 104 ± 59 | ALT ([4]; HFHC, BBR 1.8 mg/day (n = 5)): 181 ± 95 | AST ([4]; HFHC, BBR 1.8 mg/day (n = 5)): 102 ± 17 | BUN ([4]; HFHC, BBR 1.8 mg/day (n = 5)): 18.6 ± 5.8 | GLUCOSE ([4]; HFHC, BBR 1.8 mg/day (n = 5)): 152 ± 35 | WBC ([4]; HFHC, BBR 1.8 mg/day (n = 5)): 2675 ± 1617 | liver function and kidney function ([4]; compared to HFHC fed control animals): not significantly changed

Source: patent US20080124404A1 (priority 2006, published 2008)
